# Results published in the supplement of paper PMC3334620.
# In all, about 33,000 sequences were measured (“E-score (-0.5 to 0.5)”: median about -0.053, highest 2% from about 0.37 on). The list shows a part of the results.
# Biological target: Hap1 (UniProt P0CE41)
# Test: PBM E-score (8-mer binding enrichment) (E-score (-0.5 to 0.5)); higher = stronger / more preferred TF binding; most listed sequences are background and not binding sites
# Settings: protein concentration: 200 nM; construct: GST-DNA-binding domain
# Procedure, shortened: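 Full-length yeast transcription factors or their DNA-binding domains, GST-tagged and expressed with PURExpress, were applied at about 100-200 nM to universal all-10-mer Agilent arrays. These arrays had been made double-stranded by primer extension on fresh or once-stripped slides. Detection used fluorescent anti-GST, normalisation used masliner, and E-scores for ungapped eight-base words pooled with reverse complements came from the Universal PBM Analysis Suite.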
# Sequence of UniProt P0CE41 (P0CE41 whole entry): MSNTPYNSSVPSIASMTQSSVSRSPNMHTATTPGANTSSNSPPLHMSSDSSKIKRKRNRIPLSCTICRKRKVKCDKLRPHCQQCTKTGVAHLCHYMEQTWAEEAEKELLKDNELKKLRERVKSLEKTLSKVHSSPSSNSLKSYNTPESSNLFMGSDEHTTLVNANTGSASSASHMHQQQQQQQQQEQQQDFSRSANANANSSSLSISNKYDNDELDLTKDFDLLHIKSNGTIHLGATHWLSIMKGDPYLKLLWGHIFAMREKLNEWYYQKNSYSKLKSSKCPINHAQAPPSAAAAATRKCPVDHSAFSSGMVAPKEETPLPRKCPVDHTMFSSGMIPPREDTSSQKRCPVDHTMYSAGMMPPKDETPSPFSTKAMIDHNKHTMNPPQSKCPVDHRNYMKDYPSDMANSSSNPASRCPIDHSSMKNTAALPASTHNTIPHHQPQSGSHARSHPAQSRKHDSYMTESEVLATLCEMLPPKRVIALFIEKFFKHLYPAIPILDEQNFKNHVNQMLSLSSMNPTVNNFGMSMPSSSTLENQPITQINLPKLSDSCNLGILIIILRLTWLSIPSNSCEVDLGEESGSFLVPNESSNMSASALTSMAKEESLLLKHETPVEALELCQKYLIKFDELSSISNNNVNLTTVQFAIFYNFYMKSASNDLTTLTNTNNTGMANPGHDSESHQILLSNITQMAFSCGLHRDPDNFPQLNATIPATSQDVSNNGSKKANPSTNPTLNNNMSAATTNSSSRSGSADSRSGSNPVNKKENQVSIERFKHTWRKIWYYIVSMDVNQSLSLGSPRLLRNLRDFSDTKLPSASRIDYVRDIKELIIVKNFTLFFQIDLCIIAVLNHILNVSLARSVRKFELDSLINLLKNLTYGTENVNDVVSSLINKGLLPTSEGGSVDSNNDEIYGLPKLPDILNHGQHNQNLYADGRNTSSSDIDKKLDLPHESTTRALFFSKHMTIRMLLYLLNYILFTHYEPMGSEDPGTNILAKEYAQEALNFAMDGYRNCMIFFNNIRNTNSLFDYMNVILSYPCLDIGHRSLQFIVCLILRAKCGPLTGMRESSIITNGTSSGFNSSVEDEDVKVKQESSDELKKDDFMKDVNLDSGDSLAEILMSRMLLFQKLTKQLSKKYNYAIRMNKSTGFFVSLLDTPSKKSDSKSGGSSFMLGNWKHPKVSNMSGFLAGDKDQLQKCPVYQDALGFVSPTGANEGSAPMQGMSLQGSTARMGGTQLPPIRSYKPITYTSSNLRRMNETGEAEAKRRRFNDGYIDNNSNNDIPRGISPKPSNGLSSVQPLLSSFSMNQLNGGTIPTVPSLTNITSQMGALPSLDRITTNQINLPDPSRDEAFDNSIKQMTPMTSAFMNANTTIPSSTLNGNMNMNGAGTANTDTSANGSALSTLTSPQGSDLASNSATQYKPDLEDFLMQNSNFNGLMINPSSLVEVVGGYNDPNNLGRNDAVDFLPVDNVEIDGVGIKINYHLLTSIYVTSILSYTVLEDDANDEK
row,Sequence,PBM E-score
1,CTCTTTGA,-0.237
2,GCCACCCA,-0.18
3,ATCAATTG,-0.129
4,ATGAAGGA,-0.201
5,CCGTTGCA,0.024
6,ACGTGCAG,-0.17
7,CAATTGAA,-0.185
8,GTTATGAA,-0.0689
9,ACCTACCG,0.0327
10,CGCTGAAG,-0.0641
11,AACTCCTT,0.123
12,GAGTCATC,-0.00435
13,CTGGATGC,-0.163
14,TTCCGGAA,0.466
15,CAAAGAAA,-0.121
16,GACTGACA,-0.16
17,AAATCCGT,0.396
18,GACTCTCC,-0.046
19,AGAGTCCA,-0.195
20,ATTCGGTG,0.18
21,AAGCTACT,-0.172
22,CTACCGGC,0.29
23,ACCTTGCG,-0.0811
24,GCTCCATA,-0.0613
25,CGTGCTCC,0.0979

row,Sequence,PBM E-score
1,ATTATCGG,0.432
2,GGGAGTCA,-0.0723
3,ACCCCGGG,0.357
4,GACAGAAC,-0.0791
5,CTGCAAGA,-0.213
6,ATAACCAT,-0.0972
7,ACCCCATG,0.0378
8,CAGTTGCG,-0.0193
9,AAGCTAAA,-0.173
10,ACAGTTTG,-0.102
11,ATTTTGAG,-0.00938
12,CGGTCACC,0.149
13,AGCGGGCA,0.104
14,ACTGTACG,-0.167
15,AGCCTATC,-0.0579
16,CAAGCCAG,-0.235
17,CAAATGGA,0.0555
18,CCGTACAA,0.103
19,CGAGCCAG,0.192
20,AATCCACC,0.0742
21,ACACTGGT,-0.212
22,ATAACGTG,-0.072
23,ATATGAAG,-0.0806
24,ATGTGCAA,-0.14
25,CACTAGCC,0.102

row,Sequence,PBM E-score
1,CACAAAAA,-0.0265
2,AAAGTTAG,-0.019
3,ATGTCGCC,3e-05
4,CATACCAG,-0.0971
5,GCTGGTTA,-0.151
6,GCGCCCCA,0.0553
7,AACAGCTC,-0.0254
8,TAAGTAAA,-0.0948
9,AGGAAATG,-0.192
10,AACCGCCT,0.158
11,ACGATTAT,0.145
12,AGCAGGTG,-0.112
13,AGTATTTG,-0.169
14,GATGACGC,-0.0801
15,AGAGCAAC,-0.317
16,CGCATGGC,0.184
17,GAAAGACA,-0.0415
18,CGGCAATC,0.284
19,CTCATTCC,0.139
20,ACATACCA,-0.0949
21,GGTCGGGA,0.277
22,AACGTTAT,-0.0186
23,ATTGCGGG,0.273
24,CCGGATCG,0.347
25,ACGTAACT,-0.21

row,Sequence,PBM E-score
1,AAGACCGA,0.413
2,AGCGCTAT,0.0782
3,CGTTCTGA,-0.0496
4,GCAGTTCA,-0.0429
5,AGAACTCG,0.0147
6,CAGGTTTC,-0.054
7,CCGGGTTA,0.37
8,AGTCACGA,-0.166
9,CGTTACTA,-0.037
10,CCGGAGGC,0.286
11,CTCTCACA,-0.193
12,GTGTGCCA,-0.0579
13,CTGTGAGA,-0.277
14,AAGCGCTC,0.0583
15,ATTCCTAC,-0.115
16,AAGTCAAT,-0.106
17,ATTATCCG,0.391
18,TCAAACGA,-0.155
19,GACATATA,0.0307
20,ATTCATTC,-0.019
21,CATTTTAC,0.15
22,AGGCCCCT,-0.0673
23,TACTGCGA,-0.167
24,CACGGACA,0.312
25,GAGACTTA,-0.147

row,Sequence,PBM E-score
1,AGCCATAA,-0.151
2,AGACATCC,-0.03
3,CTCCATGA,-0.0786
4,AAGCGTAA,0.0257
5,CTTATGCA,-0.246
6,GTAAGTAC,0.0984
7,CTTCGGCA,0.264
8,AGGTTCTC,0.0465
9,ACCAAATC,-0.146
10,AGATTACC,-0.00083
11,AGTGAGGC,-0.0972
12,CCACCCAC,-0.127
13,GCCTGCTA,-0.152
14,AGCACGAA,0.0609
15,TAATTGCA,-0.0806
16,ATACCGCC,0.291
17,GTCTTGTA,-0.123
18,ATCTGGCC,0.127
19,GTCTAGAC,-0.269
20,CCTCCCAC,-0.0529
21,TAATGGTA,-0.0142
22,TAGTAACA,-0.088
23,AAATTGTA,-0.104
24,ACGAGTTA,-0.15
25,CCCCAAGA,-0.0568

row,Sequence,PBM E-score
1,GCAGCTTA,-0.171
2,CGCTATTC,0.0696
3,CAGCCGTC,0.0371
4,AATGCCTC,-0.116
5,ATTGTATG,-0.0192
6,TGTATACA,-0.0464
7,GTGCATTA,-0.214
8,GCAGCCTA,-0.226
9,ATTTAAGC,0.0261
10,CGAATCCA,0.0171
11,TCCCTTCA,-0.318
12,ACACCCAG,-0.131
13,AATAAGGG,-0.24
14,CTATCCAA,-0.155
15,AACATCGG,0.294
16,CACATCGG,0.224
17,GGCACCTA,0.0604
18,AGCATCTA,-0.207
19,AGAGAATA,0.115
20,AAACATTG,-0.0851
21,AGTAATTC,0.16
22,AGTCGAGC,-0.26
23,CATATGTA,-0.355
24,GACGTAGC,-0.00077
25,ACGCTACG,0.021

row,Sequence,PBM E-score
1,CTGTCCTC,-0.16
2,ATAGAGCA,-0.17
3,GTCAGGTA,-0.0611
4,CGTAAACA,0.163
5,GTATGTGA,-0.131
6,CTTCATTA,-0.257
7,AGCTGACG,-0.113
8,GGACCAAC,0.142
9,CGACATGA,0.0551
10,TAGCTTCA,-0.271
11,CTACTTCC,0.158
12,TAGTGATA,-0.243
13,CGAGGTAC,-0.113
14,AAATGGGC,-0.0315
15,ATATTCTA,-0.129
16,GGAGATGA,0.133
17,CGCTACCA,0.0305
18,AAACGAAC,-0.13
19,TACGAGCA,-0.124
20,CAACACCA,-0.237
21,GGTGATGA,-0.0753
22,GGTCAACA,0.034
23,CATTTTGC,-0.00097
24,CATCAACC,-0.0425
25,AACCAGCG,0.0362

row,Sequence,PBM E-score
1,AGGGATAC,-0.181
2,GTTGCTGA,-0.108
3,CCTTTTCC,-0.0302
4,ACAAACAC,0.116
5,AGCGCATG,-0.2
6,CATTAGCG,0.0582
7,AGCAGAAA,-0.0575
8,ATGCTCAG,-0.189
9,AGAGATGA,-0.136
10,CTCAATAC,0.0506
11,GTTCATGA,-0.0139
12,ATGAAGCA,-0.161
13,ACTTTGAC,-0.21
14,GATTCCTA,0.00704
15,ACTAGAAA,-0.112
16,AACCCAAC,-0.149
17,TAGTCCCA,-0.284
18,TGATCCAA,-0.104
19,ATTGCGTA,-0.0376
20,AAGTGGCC,0.0773
21,AAGTACTA,0.0747
22,AATGACGT,-0.0933
23,CATCCGCG,0.25
24,ATAGCTAT,0.0675
25,CGTAATGA,-0.0241

row,Sequence,PBM E-score
1,ATAAGGAT,-0.238
2,ACAGCTTA,-0.264
3,CTTGAAGA,-0.216
4,ACTATACA,-0.124
5,CGAGGGTA,0.076
6,TAATATGA,0.0686
7,CTCGAGAA,-0.235
8,AGTAGTTA,-0.113
9,GTAAAACA,-0.148
10,AGTCGGAT,0.361
11,CGCTATGA,0.099
12,ATGCTAGG,-0.0899
13,GCTGGTAA,-0.181
14,CGGCATCA,0.165
15,AAGTCATT,-0.259
16,CAATGAGC,0.0272
17,TATAAAAA,0.142
18,AGAGGTAG,-0.189
19,CGGCGTCC,0.231
